Data on 86 compounds can be found in ChEMBL document CHEMBL4888484, “Replenishing the malaria drug discovery pipeline: Screening and hit evaluation of the MMV Hit Generation Library 1 (HGL1) against asexual blood stage Plasmodium falciparum ,using a nano luciferase reporter read-out” (2022).

Among all 150,000 compounds or so, about 540 (0.36%) showed an effect of 50% or more. The list shows a part of the results.

This test relates to Plasmodium falciparum. Description: Primary screen in NF54 nanoGlo assay, in single point, at 2uM, 72h; a lower Z score goes with more inhibition. The test is classed as functional, Erythrocyte. The following applies: timepoint 72 hour.
A word on the % Inhibition: it is the drop in the measured response relative to a control, in per cent. `O[C@H]1CCC[C@@H]1n1nc(C(F)(F)F)cc1C1CC1`: the “% Inhibition” value is on record as -14% and the Z score turned out to be 2.06.
Take `Cc1nc(C)n(CCNC(=O)C[C@H]2COCCN2Cc2ccc(C)o2)n1`: the “% Inhibition” value is on record as -3% and the Z score turned out to be 0.33.
On to `O=C(c1cccnc1)N1CC[C@@H]2OCc3cnnn3[C@@H]2C1`, for which the “% Inhibition” value is -8% and the Z score is 1.42.
Regarding `C[C@@H](C(=O)O)N(C)CCc1ccc2c(c1)CCO2`, the “% Inhibition” value was -1% and the Z score is on record as 0.08.
On the same counts, the results for `O=C(c1sc2ccccc2c1Cl)N1CCC(Nc2nccs2)CC1` are -9% and 1.52.
The matching figures for `CN1CC[C@H](N(C)C(=O)c2cnc(-c3ccc4c(c3)OCO4)nc2Nc2ccccc2F)C1`: -7% and 0.87.
Turning to `O=C(c1cccc(Oc2ccc(F)cc2)c1)N1CCN(c2cccnc2)C(=O)C1`, the “% Inhibition” value is on record as 17% and the Z score is listed as -2.12.
For the compound `Cc1cc(CNC(=O)NC(C)(C)C)on1`, the “% Inhibition” value is reported as -6% and the Z score stood at 0.99.
For the compound `Cc1oc(-c2cc(C(F)(F)F)on2)cc1S(=O)(=O)N[C@H]1CCNC1=O`, the “% Inhibition” value is on record as -6% and the Z score came out at 0.99.
On to `O=C(NCCCc1cccnc1)[C@H]1CCS(=O)(=O)C1`, for which the “% Inhibition” value is recorded as -4% and the Z score came out at 0.71.
As to `COC(=O)Nc1ccc(O[C@@H](C)c2ncc(Br)cn2)cc1`, the “% Inhibition” value is given as 21% and the Z score was -2.67.
Regarding `CC[C@H](NS(=O)(=O)c1cc(Cl)cnc1N)c1nccs1`, the “% Inhibition” value amounted to 8% and the Z score is on record as -1.08.
Turning to `NC(=O)[C@@H]1CN(C(=O)c2ccc(Br)cc2Oc2ccc(F)cc2)CCO1`, the “% Inhibition” value is listed as 32% and the Z score is listed as -4.68.
On to `CN(c1nc(Cn2cnc(C#N)c2C#N)cs1)C1CC1`, for which the “% Inhibition” value is given as -2% and the Z score amounted to 0.25.
On the same counts, the results for `CC1CN(Cc2cnc3ccnn3c2)CC(C)[S+]1[O-]` (configuration not stated) are -7% and 1.11.
Consider `O=C(NC1CC=CCC1)C1CC(O)CN1C(=O)Cc1ccccc1F` (configuration not stated), for which the “% Inhibition” value is 0% and the Z score is reported as -0.07.
Take `O=C(Cn1nc2c(N3CCOCC3)nc3ccccc3n2c1=O)Nc1cccc(Br)c1`: the “% Inhibition” value is reported as -5% and the Z score is 0.69.
Consider `C=CCN1CC[C@H](N(C)C(=O)Nc2cccc(OCCF)c2)C1=O`, for which the “% Inhibition” value is on record as -11% and the Z score is 1.22.
On the same counts, the results for `CN(C)c1cccc(C(=O)N2CCN(C(=O)c3nnn4c3CO[C@H](c3ccc(Cl)cc3)C4)CC2)c1` are -19% and 1.79.
On to `CC[C@H]1CN(Cc2noc(C(C)C)n2)CCO1`, for which the “% Inhibition” value was -10% and the Z score was found to be 1.92.
Regarding `Cc1ccc2nc(-c3ccc(C)o3)c(NC(=O)c3cccc(Br)c3)n2c1`, the “% Inhibition” value is listed as -8% and the Z score is given as 1.12.
The matching figures for `C[C@H]1CCCCN1C(=O)CCNc1ccc(Cl)cn1`: 0% and -0.07.
With `Cc1cc(C)c2c(CN(C)C[C@H]3COCCO3)cc(C)nc2c1`, the “% Inhibition” value was -10% and the Z score is 1.97.
`CCc1nn(C)c(Cl)c1CN1C[C@H]2CC[C@@H](C1)N(CC1CC1)C2`: the “% Inhibition” value is reported as -6% and the Z score is 0.7.
Consider `COc1ccc(N2CCN(C(=O)Cn3ncccc3=O)CC2)cc1`, for which the “% Inhibition” value was -2% and the Z score came to 0.25.
As for `O=S(=O)(N1CCCC1)N1CCCN(CCc2ccccn2)CC1`, the “% Inhibition” value is reported as 1% and the Z score is given as -0.14.
For `CNC(=O)CN(C)C(=O)c1csc(NC(C)=O)n1`, the “% Inhibition” value is -10% and the Z score was 0.93.
For `Cc1ncc(-c2nc3c(cnn3C[C@@H]3CC=CCC3)[nH]2)n1C`, the “% Inhibition” value is on record as -3% and the Z score amounted to 0.54.
Take `O=C(c1cnn2ccncc12)N1CC[C@H](C(F)(F)F)C1`: the “% Inhibition” value was -22% and the Z score came out at 2.36.
Take `Oc1ccc(Cl)c(CN2CCC[C@H]2c2ncn[nH]2)c1`: the “% Inhibition” value is listed as -3% and the Z score was 0.46.
On the same counts, the results for `OCCn1nc(C2CCCC2)nc1Cc1cccnc1` are -17% and 1.69.
Take `Cn1cnnc1NC(=O)Cc1cccc(Br)c1`: the “% Inhibition” value was determined as 2% and the Z score was -0.26.
Regarding `Cn1cc(CN2CCC(C(=O)NC3CCCC3)CC2)c2cc(Cl)ccc21`, the “% Inhibition” value was found to be 0% and the Z score amounted to 0.02.
On to `Cc1ccc(NC(=O)[C@@H]2CNC[C@H](C(=O)NCc3ccc(C)c(C)c3)C2)cn1`, for which the “% Inhibition” value came out at 3% and the Z score was -0.45.
`FC(F)(F)c1ccc2sc(N3CCOC[C@H]3c3nnc(-c4ccccc4)o3)nc2c1`: the “% Inhibition” value is listed as -7% and the Z score stood at 0.87.
Regarding `CC(C)[C@H](NC(=O)N(C)Cc1ccnc2ccccc12)C(=O)O`, the “% Inhibition” value is -8% and the Z score was 1.68.
Consider `C[C@@H](c1nnc(-c2ccc(F)cc2)o1)N(C)Cc1ccco1`, for which the “% Inhibition” value worked out at 4% and the Z score is on record as -0.83.
In the case of `C[C@H]1CCCN(C(=O)c2nn(C)c3ccccc3c2=O)C1`, the “% Inhibition” value is -7% and the Z score is listed as 0.84.
As to `CNC(=O)[C@@H](Nc1nccc(C)n1)C(C)C`, the “% Inhibition” value was -15% and the Z score is on record as 1.52.
On the same counts, the results for `CC(C)C[C@H]1CCCCCN1CC(=O)NCC#N` are 2% and -0.26.
For the compound `COc1ccc([C@H](C)NC(=O)Cn2c(C)cc3nc4n(c(=O)c32)CCCCC4)cc1`, the “% Inhibition” value was 26% and the Z score was -2.92.
With `O=C(c1ccc(C(F)(F)F)cc1)N1CCN([C@H]2CCN(Cc3ccccn3)C2=O)CC1`, the “% Inhibition” value is reported as -16% and the Z score amounted to 2.05.
With `CCOC1CC(OC(=O)c2cc(C)n(C)n2)C1(CC)CC` (configuration not stated), the “% Inhibition” value turned out to be 5% and the Z score is given as -0.72.
The matching figures for `O=C([C@H]1CCOC1)N1CCCn2nc(-c3nc4cc(F)ccc4[nH]3)cc2C1`: -3% and 0.6.
On to `CN1CCN([C@@H]2COC3(C2)CN(C(=O)COc2ccccc2)C3)CC1`, for which the “% Inhibition” value is -15% and the Z score was determined as 2.3.
`CCCN(CC(=O)N1CCc2sccc2[C@@H]1COc1ccccc1OC)C(C)=O`: the “% Inhibition” value is reported as -8% and the Z score is 0.87.
As for `CC[C@@H](C(N)=O)N(c1ccc(C)c(Cl)c1)S(C)(=O)=O`, the “% Inhibition” value is listed as -17% and the Z score is listed as 2.86.
Turning to `CCc1nc(CC)n(Cc2csc(CS(C)(=O)=O)n2)n1`, the “% Inhibition” value was -2% and the Z score is on record as 0.4.
Regarding `Cc1cc(C)c(C#N)c(N2CCC3(CCOCC3)CC2)n1`, the “% Inhibition” value is listed as -8% and the Z score is recorded as 1.53.
As for `C[C@@H](c1ccncc1)N(C)Cc1ncc[nH]1`, the “% Inhibition” value was 4% and the Z score was -0.55.
For `COc1cccc(CN2CCN(C(=O)CC[C@]3(Cc4ccc(C)cc4)CCC(=O)N3)CC2=O)c1`, the “% Inhibition” value is 8% and the Z score is -1.09.
On the same counts, the results for `CCNc1nc(C)c(C(=O)N2CCNC[C@H]2C(=O)NC2CC2)s1` are -1% and 0.18.
Consider `CC(=O)N1CC[C@H](c2ccc(F)cc2)[C@@H](NC(=O)OC(C)(C)C)C1`, for which the “% Inhibition” value is reported as 6% and the Z score was -0.66.
In the case of `CC(C)c1ccc(-c2c(N3CCCC3)cn[nH]c2=O)cc1`, the “% Inhibition” value was found to be 0% and the Z score is 0.04.
On the same counts, the results for `O=C(NCc1ccccn1)c1c[nH]c2cc(Cl)ccc2c1=O` are 5% and -0.63.
With `COc1ccccc1/N=C(/NC(=O)c1cccc(C)c1)N1CCN(C)CC1`, the “% Inhibition” value is reported as -7% and the Z score came out at 1.24.
`CCn1cnnc1CCn1cc(-c2nccs2)nn1`: the “% Inhibition” value is given as -6% and the Z score is recorded as 0.68.
Consider `Cc1cnn(CCNC(=O)N[C@H]2CS(=O)(=O)c3ccccc32)c1`, for which the “% Inhibition” value is given as -3% and the Z score was determined as 0.34.
On to `CN(C(=O)[C@@H]1Cc2cncn2C(=O)N1)C1CCCCCC1`, for which the “% Inhibition” value was -15% and the Z score is reported as 1.99.
Take `CCc1cccc(NC(=O)N(Cc2ccc(OS(=O)(=O)c3ccc(F)cc3)cc2)CC(C)C)c1`: the “% Inhibition” value is on record as -2% and the Z score is listed as 0.21.
Turning to `CC1CCN(CCN(C)C2CCCC2S(C)(=O)=O)CC1` (configuration not stated), the “% Inhibition” value was -8% and the Z score is 1.
For `Cn1ncnc1NS(=O)(=O)c1ccc(C2CCCCC2)cc1`, the “% Inhibition” value is listed as -2% and the Z score was 0.2.
For `CC(=O)N1CCCN(Cc2ncc(C(F)(F)F)s2)CC1`, the “% Inhibition” value was found to be 0% and the Z score worked out at 0.02.
Consider `CC(C)(C)OC(=O)Nc1ncc(CNc2ccc(Cl)cn2)s1`, for which the “% Inhibition” value amounted to 0% and the Z score is -0.04.
On to `CN(C)CCN[C@@H](CC(=O)Nc1cccc(Cl)c1Cl)C(=O)O`, for which the “% Inhibition” value is listed as -34% and the Z score came to 4.
Regarding `NCc1c(Cl)cccc1-n1cccc1CO`, the “% Inhibition” value was -10% and the Z score came out at 1.17.
The matching figures for `CC(C)(C)c1nn(CC(N)=O)cc1Br`: 31% and -3.48.
On to `CCOc1ccc(NC(=O)Nc2c(C3=CCCCC3)c(C)nn2C)cc1`, for which the “% Inhibition” value is -8% and the Z score worked out at 1.38.
On to `CC1=C(C)CN(C(=O)N[C@@H](C)c2ncc(C)o2)CC1`, for which the “% Inhibition” value is 2% and the Z score is given as -0.24.
On to `C[C@H]1CCCN1CCNC(=O)Cc1ccc(OC(F)F)cc1`, for which the “% Inhibition” value turned out to be 4% and the Z score is -0.36.
Take `COc1ccnc(CN[C@@H](C)c2ccc(C#N)cc2)c1OC`: the “% Inhibition” value is recorded as -11% and the Z score was 1.42.
For the compound `CCc1noc(CN(C)CC(=O)NCc2ccco2)n1`, the “% Inhibition” value was 8% and the Z score is listed as -1.51.
In the case of `COc1ccc(OCCN2CC[C@H]3CCCC[C@H]3C2)cc1`, the “% Inhibition” value is on record as -4% and the Z score came out at 0.62.
For `COc1ccccc1N1CCN(c2ncccc2CNC(=O)[C@H]2CCCN2)CC1`, the “% Inhibition” value is recorded as -18% and the Z score came out at 1.74.
On the same counts, the results for `O=C(c1cccnc1)N1CCC(F)(F)[C@@H](COCc2ccccc2)C1` are 1% and -0.16.
With `Cc1cnc(C[C@H]2CCCN(S(=O)(=O)Cc3ccccc3)C2)n1CC1CC1`, the “% Inhibition” value is 7% and the Z score was -1.12.
On to `CC(C)Oc1cnccc1C(=O)N1CC(C)(C)[C@@H]1C1CC1`, for which the “% Inhibition” value is 2% and the Z score is -0.36.
Turning to `Cc1onc(C(=O)NC2CCCCC2)c1C`, the “% Inhibition” value is listed as 8% and the Z score is recorded as -0.96.
Turning to `O=C(c1cccc(C(F)F)c1)N1CCN(C(=O)c2ccc3[nH]cnc3c2)CC1`, the “% Inhibition” value was found to be 6% and the Z score is recorded as -0.57.
Turning to `O=C(NCc1nnc2n1CCC2)c1ccc2ccccc2n1`, the “% Inhibition” value was -1% and the Z score turned out to be 0.11.
Consider `Cc1ccc(S(=O)(=O)Oc2cc(C)n(C)c(=O)c2)cc1`, for which the “% Inhibition” value was -7% and the Z score was found to be 1.26.
Take `Nc1ncccc1CN1CCN(c2nccc3ccccc23)C[C@@H](O)C1`: the “% Inhibition” value was -23% and the Z score is on record as 2.3.
Regarding `Cc1cc(OCC(=O)Nc2ccccc2)nnc1C`, the “% Inhibition” value is reported as -9% and the Z score amounted to 1.66.
On to `NC(=O)CO[C@H]1CCC12CCN(C(=O)c1ccc(F)cc1F)CC2`, for which the “% Inhibition” value was -9% and the Z score is listed as 1.18.
On the same counts, the results for `O=C(c1ccc(-c2ccco2)[nH]c1=O)N1CCC[C@H]1c1ccncc1` are 1% and -0.19.
For `Clc1cccc2ccc(NCC[C@H]3CCCOC3)nc12`, the “% Inhibition” value is 8% and the Z score is given as -1.1.
